± gives the standard deviation. Whole data set: some 5,500 sequences, median “pre-steady-state target cleavage rate” near 0.1, cut for the highest 2% near 0.64. Only a part is listed here, and it is no random draw.

In the assay the test system is MIWI (PIWIL1) piRISC loaded with piRNA #2 (30 nt). Kind of assay: pre-steady-state target cleavage rate (min^-1); MIWI and MILI are mouse PIWI proteins and EfPiwi is from a freshwater sponge; tags in brackets are library labels; higher = faster piRNA-guided slicing of the target. As to conditions: guide: piRNA #2 5'p-UUAGGUAACCCAGUAGAUCCAGAGGAAUUC; auxiliary factor: 500 nM mouse GTSF1. As to the method: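 Cleave-'n-Seq: a library of target RNAs (target site embedded in constant flanks, ACAGCATTCCGCGTTAGTGATATCCG... 5' flank; DNA-blocked outside the site) at 0.1 nM was incubated with 1 nM active mouse MILI or MIWI piRISC (synthetic 5'-monophosphorylated piRNA guide) with or without 500 nM mouse GTSF1 at 33 °C for 1 min to 16 h. Uncleaved targets were sequenced and normalised to non-target controls, and the pooled three trials were fitted to a burst-and-steady-state model to give the pre-steady-state cleavage rate (min^-1; k3 is constrained to at most 1e-4). Sequence is the target site only; target names encode pairing extent (gX:gY) and contiguous / 1-mismatch / 2-mismatch / bulge geometry. Fits with R² ≤ 0 are excluded.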
Regarding CUUUUCCUCUGGAUCUUCAGGGUUACCUAA, the “pre-steady-state target cleavage rate” value was 0.134 ± 0.014. The value for CAAUUCCUCUGCAUCUACUGCGUUACCUAA was 0.666 ± 0.058; that for CUUAUCCUCUGGAUCAACUGGGUUUCCUAA was 0.162 ± 0.042. The value for CUUAAGGAGAGGAUCUACUGGGUCACCUAA was 0.0212 ± 0.0054; that for CAAUUCCUCUGGAUCUACUGGGUUACGUUA was 0.44 ± 0.076; that for CUUAAGCGCUGGAUCUACUGGGUUACCUAA was 0.162 ± 0.014. CUUAACACUCUGGAUCUACUGGGUUACCUAA: the “pre-steady-state target cleavage rate” value amounted to 0.155 ± 0.022. In the case of GAUAACCUCUGGAUCUACUGGGUUACCUAA it was 0.123 ± 0.024. The value for GAAUUCCUCUGGAUCUACUGGGUUACCUGAA was 0.735 ± 0.26. In the case of CUUAAGGAGAGGAUCUACUGCGUUACGUAA it was 0.0136 ± 0.0065. With CUUAACCUCUGGAUCUACUGGGUUACUUAA, the “pre-steady-state target cleavage rate” value was 0.45 ± 0.035. As to CAAUUCCUCUGGAUCUACUGGGUUACCAUA, the “pre-steady-state target cleavage rate” value amounted to 0.518 ± 0.076.

In the case of GAAUUCCUCUGGAUCUUCUGGGUUACGUAA, the “pre-steady-state target cleavage rate” value was 0.547 ± 0.042. The value for CAAUUGCUCUGGAACUACUGGGUUACCUAA was 0.228 ± 0.029; that for CAUUUCGUCUGGAUCUACUGGGUUACCUAA was 0.416 ± 0.058.

On to CUUAUCCUCUGGAUCUACUGGGUUAACUAA, for which the “pre-steady-state target cleavage rate” value amounted to 0.407 ± 0.071. In the case of CUUAAGCUCAGGAUCUACUGGGAUACCUAA it was 0.137 ± 0.024; in that of CAAUUCCUCUGGAUCUACUGGGUUAUCUAA, 0.634 ± 0.1; in that of CUUAAGGUCUGGUUCUUCUGGGUUACCUAA, 0.0644 ± 0.021.

In the case of CUUUUCCUCUGCUACUACUGGGUUACCUAA, the “pre-steady-state target cleavage rate” value came to 0.305 ± 0.033. CUUAAGCUCUGGAACUACUGGGUUACCUUA: the “pre-steady-state target cleavage rate” value is 0.12 ± 0.017.

Take CUUAAGGAGACCAUCUACUGGGUUACAUAA: the “pre-steady-state target cleavage rate” value is 0.00756 ± 0.0026. In the case of CUUAACCUCUGGAUCUACUGGGUCUACCUAA it was 0.252 ± 0.027; in that of CUAUUCCUCUGGAUCUACUGGGUUUCCAAA, 0.149 ± 0.043; in that of CAAUUCCUCUGGAUCUUCUCGGUUACCUAA, 0.0735 ± 0.014. In the case of CUUAACCCUCUGGAUCUACUGGGUUACCUAA it was 0.256 ± 0.032; in that of CUUAAGGAGUGGUUCUACUGGGUUACCUUA, 0.0165 ± 0.004; in that of CUUAAGCUCUGGAUCUUCUGGGUUACCUUA, 0.0656 ± 0.014.

On to CAUUUCCUCUGGAUCAACUGGGUUACCUAA, for which the “pre-steady-state target cleavage rate” value is 0.494 ± 0.056. In the case of CAAUUCCUGUGGAUCUACUGCGUUACCUAA it was 0.416 ± 0.059; in that of CUAUUCCUCUGCAUCUAGUGGGUUACCUAA, 0.179 ± 0.019. For the sequence CUUAAGCUCUGCAUCUACUGGGUUACGUAA, the “pre-steady-state target cleavage rate” value was found to be 0.226 ± 0.021. In the case of CUUUUCCUCUGCAUCAACUGGGUUACCUAA it was 0.374 ± 0.03; in that of CUUUUCCUCUGGAUCUUCUGCGUUACCUAA, 0.253 ± 0.033; in that of CUUAUCCUCUGGAUCUACUGGGUCUACCUAA, 0.424 ± 0.037. As for CUUUUCCUCUGGAUCCUACUGGGUUACCUAA, the “pre-steady-state target cleavage rate” value was determined as 0.149 ± 0.025. Consider CUAUUCCUCUGGAUCUACUGGGUUACCUUA, for which the “pre-steady-state target cleavage rate” value was 0.333 ± 0.056. For “GAAUUCCUCUGGAUCUACUGGGUUACCUAU [g2:g30:cont:t1U]”, the “pre-steady-state target cleavage rate” value came out at 0.262 ± 0.042. The value for CUUAAGGUCACGAUCUACUGGGUUACCUAA was 0.0165 ± 0.0034. The value for GUUAUCCUCUGGAUCUACUGGGUUACCUAA was 0.0688 ± 0.031; that for CAAUUCCACUGGAUCUAGUGGGUUACCUAA was 0.193 ± 0.03. The value for CUUAAGCUCUGCUACUACUGGGUUACCUAA was 0.0735 ± 0.013; that for CUUAAGCUCUGGAUCUCCUGGGUUACCUAA was 0.0368 ± 0.01. In the case of GAAUUCCUCUCGAUGUACUGGGUUACCUAA, the “pre-steady-state target cleavage rate” value worked out at 0.645 ± 0.052. In the case of CUUAAGGUCUGGAAGUACUGGGUUACCUAA it was 0.2 ± 0.042; in that of CUUAAGGACUGGGAUCUACUGGGUUACCUAA, 0.0607 ± 0.035; in that of CUAUUCCUCUGGAUCUACUGCGUUACCAAA, 0.344 ± 0.07. In the case of CUUAAGGACUGGAUCUACUGGGUUACCUAAA it was 0.183 ± 0.065; in that of CUUUUCCUCUGCGAUCUACUGGGUUACCUAA, 0.474 ± 0.049. As to CUUUUCCUCUGGAUCUGCUGGGUUACCUAA, the “pre-steady-state target cleavage rate” value was determined as 0.451 ± 0.054. The value for GAAUUCCUCUGGAUCUACGUGGGUUACCUAA was 0.00545 ± 0.0038; that for CUUUUCCUCUGGUAUCUACUGGGUUACCUAA was 0.372 ± 0.057; that for CUUAAGCUCAGGAUCUACUGCGUUACCUAA was 0.24 ± 0.033. The value for CUUUACCUCUGGAUCUACUGGGUAACCUAA was 0.115 ± 0.017; that for CAAUUCCAGUGGAUCUACUGGGUUACCUAA was 0.495 ± 0.056. The value for GACUUCCUCUGGAUCUACUGGGUUACCUAA was 0.0458 ± 0.022; that for CUUUUCCUCUGGAUCUACUGGCUUACCUAA was 0.108 ± 0.015; that for CUUAUCCUCUGGUUCUACUGGGUUAGCUAA was 0.252 ± 0.049. In the case of CUUAACCUCUGGAUGUACUGGGUUACCUAA, the “pre-steady-state target cleavage rate” value was 0.408 ± 0.03. In the case of GAAUACCUCUCGAUCUACUGGGUUACCUAA it was 0.536 ± 0.061.

For CUUAAGGAGAGGAUCUACUGGGUUUCCUAA, the “pre-steady-state target cleavage rate” value was 0.00336 ± 0.0033. Take CUUAAGGUCUGGAUCUACUGGGUUACCAUAA: the “pre-steady-state target cleavage rate” value worked out at 0.278 ± 0.043. In the case of CUUAAGCUCUGGAUCUACUGCGUUACCUAA it was 0.26 ± 0.035; in that of CAAUUCCUCUGGAUCUACUGCGUUACCUUA, 0.402 ± 0.069; in that of CUUAUCCUCUGGAUCAACUGGGUUAGCUAA, 0.18 ± 0.041. As to CUUAAGGAGACCUAGUAGUGCGUUACCUAA, the “pre-steady-state target cleavage rate” value amounted to 0.00262 ± 0.0018.

With CUAUUCCUCUGGAUCCACUGGGUUACCUAA, the “pre-steady-state target cleavage rate” value worked out at 0.241 ± 0.04.

Take CAAUUCCUCUGCAUCUACUGGGUAACCUAA: the “pre-steady-state target cleavage rate” value amounted to 0.256 ± 0.031. In the case of CUUAAGGACUGGAUCUACUGCGUUACCUAA it was 0.132 ± 0.062; in that of CUUAAGGAGUGGAGCUACUGGGUUACCUAA, 0.0372 ± 0.019; in that of CUUAACCUCAGGAUCUACUGGGUUUCCUAA, 0.249 ± 0.05. In the case of GACAUUCCUCUGGAUCUACUGGGUUACCUAA it was 0.108 ± 0.032.

These data come from the supplement of paper PMC10338343.
